# Data published in PMC4336329 (PLoS ONE, 2015).
# Screen size: about 310,000 compounds; about 2,200 (0.71%) showed an effect of 50% or more. The effect is printed as a negative number. Some of the results follow.
# Target: human ether-à-go-go-related gene (hERG) potassium channel (human, UniProt Q12809)
# Experiment: primary screen, population patch clamp on CHO cells stably expressing hERG
# Sequence of human ether-à-go-go-related gene (hERG) potassium channel (Q12809 whole entry, looked up): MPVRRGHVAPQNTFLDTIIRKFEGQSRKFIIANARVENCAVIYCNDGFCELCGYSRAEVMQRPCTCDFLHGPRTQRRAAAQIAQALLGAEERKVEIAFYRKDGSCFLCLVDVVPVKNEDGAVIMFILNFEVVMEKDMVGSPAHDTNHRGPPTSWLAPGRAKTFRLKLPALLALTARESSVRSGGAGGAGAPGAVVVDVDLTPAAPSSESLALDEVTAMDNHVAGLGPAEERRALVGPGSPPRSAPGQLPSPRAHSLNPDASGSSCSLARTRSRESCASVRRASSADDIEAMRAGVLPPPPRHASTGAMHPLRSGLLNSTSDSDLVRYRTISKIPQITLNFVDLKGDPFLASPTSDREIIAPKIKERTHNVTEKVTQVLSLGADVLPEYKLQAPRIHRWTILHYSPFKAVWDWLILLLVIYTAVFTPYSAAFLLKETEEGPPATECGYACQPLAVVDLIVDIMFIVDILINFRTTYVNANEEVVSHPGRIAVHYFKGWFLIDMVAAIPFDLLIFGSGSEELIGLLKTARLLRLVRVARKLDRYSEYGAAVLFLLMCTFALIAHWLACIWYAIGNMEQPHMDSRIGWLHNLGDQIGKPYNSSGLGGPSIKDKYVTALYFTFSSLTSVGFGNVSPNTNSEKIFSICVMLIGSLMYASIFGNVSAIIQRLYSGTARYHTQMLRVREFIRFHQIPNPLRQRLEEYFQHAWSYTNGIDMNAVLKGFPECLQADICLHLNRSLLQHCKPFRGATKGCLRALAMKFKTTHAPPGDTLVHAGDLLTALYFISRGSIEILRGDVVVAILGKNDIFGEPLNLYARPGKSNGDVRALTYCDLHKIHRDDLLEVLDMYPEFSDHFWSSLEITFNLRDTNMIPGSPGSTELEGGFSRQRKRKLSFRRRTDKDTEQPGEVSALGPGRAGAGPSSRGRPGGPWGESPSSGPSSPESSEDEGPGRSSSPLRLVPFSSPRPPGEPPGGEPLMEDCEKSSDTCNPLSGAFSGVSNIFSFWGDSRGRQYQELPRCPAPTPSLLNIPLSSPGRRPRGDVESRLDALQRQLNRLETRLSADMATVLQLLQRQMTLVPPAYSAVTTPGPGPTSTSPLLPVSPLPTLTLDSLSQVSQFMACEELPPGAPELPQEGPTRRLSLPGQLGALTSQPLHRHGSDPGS
row,SMILES,"hERG current change (%, negative = inhibition) at 1uM [%]"
1,C/C=C\C(=O)Nc1cccc(C2=NOC3(C2)C[C@@H](C(N)=O)N(C(=O)c2ccccc2)C3)c1 (stereo partly drawn),11.6
2,CCOCCCNCc1ccc(OCc2ccc(F)cc2)c(OC)c1.Cl,-3.15
3,CCS(=O)(=O)N1Cc2ccccc2CC1C(=O)Nc1nc2ccccc2s1 (stereo not drawn),9.11
4,Cc1cc(C)nc(SCC2COc3ccccc3O2)n1 (stereo not drawn),10.4
5,CCOC(=O)C1CCN(C(=O)c2cc3c(OC)c(OC)c(OC)cc3[nH]2)CC1,14
6,Cc1ccc2c(c1)S/C(=C\c1cccc[n+]1C)N2CCO.[I-],13.7
7,CN1CCN(S(=O)(=O)c2cccc(C(=O)Nc3cc(Cl)ccc3N3CCOCC3)c2)CC1,4.76
8,COC(=O)CSc1nc(N)c(C#N)c(C(C)C)c1C#N,17.3
9,CSc1ccc(C(=O)C2CCCN(Cc3cccnc3)C2)cc1 (stereo not drawn),-4.37
10,CCc1ccc(C(=O)CSc2nc3cc(S(=O)(=O)N4CCOCC4)ccc3n2CC)cc1,-3.48
11,CC(C)COc1cccc(C(=O)Nc2ccc(S(=O)(=O)N3CCOCC3)cc2)c1,12.6
12,Fc1ccc(Nc2ccc(-c3ccc(F)cc3)nn2)cc1,9.4
13,Cc1cc(C)nc(Nc2ccc(F)cc2)n1,13
14,CCOc1nc(Nc2ccccc2)nc(OCC)n1,4.42
15,CC(C)C(NC(=O)CNC(=O)OC(C)(C)C)C(=O)NCc1ccc(Cl)cc1 (stereo not drawn),7.98
16,Cc1cccc(S(=O)(=O)Nc2cccc(-c3cn4ccsc4n3)c2)c1,3.91
17,O=C(c1ccc(NS(=O)(=O)c2cccc3cccnc23)cc1)N1CCCCC1,-1.88
18,COc1ccc(-c2cn(-c3ccc(C)c(C)c3)c(=S)[nH]2)cc1OC,6.32
19,COc1cccc(-c2nc(C#N)c(N3CCN(C(=O)c4ccco4)CC3)o2)c1,-2.03
20,C/C(N)=C(/C#N)C(=O)COc1ccc(Cl)cc1Cl,9.63
21,CC1(C)Cc2cccc(OCC(=O)Nc3ccccc3C(F)(F)F)c2O1,7.33
22,Cc1ccc(/C=N/NS(=O)(=O)c2ccc([N+](=O)[O-])cc2)o1,15.2
23,CCc1ccc(NC(=O)CSC2=C(C#N)C(c3ccc4c(c3)OCO4)CC(=O)N2)cc1 (stereo not drawn),10.5

row,SMILES,"hERG current change (%, negative = inhibition) at 1uM [%]"
1,COc1ccc(NC(=O)c2ccc(NC3CC(=O)N(c4ccc(C)cc4C)C3=O)cc2)cc1 (stereo not drawn),-1.95
2,CCOC(=O)N1CCN(CC(O)COCCC23CC4CC(CC(C4)C2)C3)CC1.Cl (stereo not drawn),-0.536
3,CCSC1(SCC)N=C(N)C2(C#N)C(c3ccc(F)cc3)C12C#N (stereo not drawn),4.83
4,O=S(=O)(NCCSCc1c(Cl)cccc1Cl)c1ccc2c(c1)OCCO2,6.62
5,O=C(NCC(=O)N(Cc1ccco1)C(C(=O)NC1CCCCC1)c1cccnc1)c1ccco1 (stereo not drawn),14.3
6,CCCCNC(=O)CCn1c(=O)c2ccccc2n(CC(=O)Nc2ccccc2OCC)c1=O,3.69
7,CCOc1ccccc1CN1CCN(C2CCC2)CC1CCO (stereo not drawn),20
8,O=C(NCc1ccccc1)c1cccc(S(=O)(=O)N2CCCCC2)c1,-13.7
9,Cc1ccc(S(=O)(=O)N2CCc3ccccc3C2CN2C(=O)c3ccccc3C2=O)cc1 (stereo not drawn),4.87
10,CC1(C)OC(C)(C)/C(=C/Nc2ccc(O)cc2)C1=O,7.79
11,Cl.OCCCCNCc1ccc(OCc2ccc(Cl)cc2)cc1,1.84
12,CC(=O)CSc1nc2c(c(=O)[nH]c(=O)n2C)n1CCCc1ccccc1,2.13
13,COc1ccc(C2(C#N)CCC(=O)N2c2ccccc2)cc1 (stereo not drawn),8.4
14,CN(C)C(=O)c1ccc(NC(=O)c2cccnc2)cc1,7.3
15,O=C(CCS(=O)(=O)Cc1ccccc1F)N1CCc2ccccc2C1,4.35
16,O=C1Nc2ccc(S(=O)(=O)NCCCO)c3cccc1c23,15.3
17,CSCCC(NS(=O)(=O)c1ccc(F)cc1)C(=O)NCc1ccc(S(N)(=O)=O)cc1 (stereo not drawn),7.02
18,C=C(C)c1cccc(C(C)(C)NC(=O)NC2CC(C)(C)NC(C)(C)C2)c1,7.67
19,COC(=O)c1[nH]c2ccc(Cl)cc2c1NC(=O)CCN1CCOCC1,9.37
20,COc1ccc(-n2nc(C(=O)Nc3ccc4c(c3)OCO4)c3ccccc3c2=O)cc1,13.3
21,COc1ccc(S(=O)(=O)O/N=C2\CCCc3ccccc32)cc1,3.33
22,N#CCC(=O)N/N=C\c1cc(Br)ccc1OC/C=C/c1ccccc1,14.8
